This passage reports binding results from PMC12796746.

By UniProt entry, the sequences of proteins in these tests, tags left out.
UniProt Q8N4Y2: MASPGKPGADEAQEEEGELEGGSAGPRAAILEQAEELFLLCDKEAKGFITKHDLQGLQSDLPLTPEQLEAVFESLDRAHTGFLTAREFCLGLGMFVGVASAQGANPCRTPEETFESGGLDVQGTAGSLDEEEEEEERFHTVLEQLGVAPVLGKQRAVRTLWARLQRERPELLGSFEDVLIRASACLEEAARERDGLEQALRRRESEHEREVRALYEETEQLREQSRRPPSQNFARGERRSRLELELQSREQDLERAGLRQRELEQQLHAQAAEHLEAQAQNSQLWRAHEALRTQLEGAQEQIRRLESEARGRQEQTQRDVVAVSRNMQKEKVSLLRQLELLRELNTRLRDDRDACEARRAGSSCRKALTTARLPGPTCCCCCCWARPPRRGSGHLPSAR
UniProt Q9BQE6: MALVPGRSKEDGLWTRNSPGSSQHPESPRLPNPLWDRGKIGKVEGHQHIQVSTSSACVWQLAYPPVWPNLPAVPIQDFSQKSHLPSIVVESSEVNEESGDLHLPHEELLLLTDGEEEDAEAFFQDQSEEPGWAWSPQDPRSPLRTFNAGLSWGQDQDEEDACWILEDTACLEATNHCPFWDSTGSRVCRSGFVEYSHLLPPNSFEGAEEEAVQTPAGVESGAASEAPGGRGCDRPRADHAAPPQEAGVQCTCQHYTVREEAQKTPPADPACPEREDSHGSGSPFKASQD

Results are given in words; binding and its absence hold for the method and conditions named. Some entries that bind do so weakly or less than the wild type.

What all share (test): peptide or protein array; HuProt Human Proteome Microarray v2.0, full-length human proteins spotted in duplicate; V5-tagged TRPV4 protein in solution at 1 μM, 1 h at 4 °C, 150 mM NaCl, 2.7 mM KCl, 25 mM Trizma base, 0.05% Tween-20, pH 7.4; detected with Alexa Fluor 647 anti-V5; hit: z-score >= 2 (N terminus: both of 2 slides; ARD constructs: at least 2 of 3 slides); both purified

Assay [1] has as its target EF-hand calcium-binding domain-containing protein 4A (human) (UniProt Q8N4Y2).
For assay [2], the target named is LBH domain-containing protein 1 (human) (UniProt Q9BQE6).
The target in assay [3] is T1, RAB6-interacting golgin (human) (UniProt Q5T7V8).
T1 sequence: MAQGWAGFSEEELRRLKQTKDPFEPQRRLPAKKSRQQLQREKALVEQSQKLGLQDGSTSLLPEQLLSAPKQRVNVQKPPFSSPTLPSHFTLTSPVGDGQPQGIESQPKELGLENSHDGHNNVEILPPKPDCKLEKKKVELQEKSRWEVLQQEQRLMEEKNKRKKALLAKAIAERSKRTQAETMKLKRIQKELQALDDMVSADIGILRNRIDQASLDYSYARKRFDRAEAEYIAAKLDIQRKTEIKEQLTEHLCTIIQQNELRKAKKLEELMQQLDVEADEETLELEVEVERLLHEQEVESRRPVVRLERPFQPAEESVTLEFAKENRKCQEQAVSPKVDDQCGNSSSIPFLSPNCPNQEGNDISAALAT

For assay [4], the target named is T2, Rab11 family-interacting protein 1 (human) (UniProt Q6WKZ4).
T2 sequence: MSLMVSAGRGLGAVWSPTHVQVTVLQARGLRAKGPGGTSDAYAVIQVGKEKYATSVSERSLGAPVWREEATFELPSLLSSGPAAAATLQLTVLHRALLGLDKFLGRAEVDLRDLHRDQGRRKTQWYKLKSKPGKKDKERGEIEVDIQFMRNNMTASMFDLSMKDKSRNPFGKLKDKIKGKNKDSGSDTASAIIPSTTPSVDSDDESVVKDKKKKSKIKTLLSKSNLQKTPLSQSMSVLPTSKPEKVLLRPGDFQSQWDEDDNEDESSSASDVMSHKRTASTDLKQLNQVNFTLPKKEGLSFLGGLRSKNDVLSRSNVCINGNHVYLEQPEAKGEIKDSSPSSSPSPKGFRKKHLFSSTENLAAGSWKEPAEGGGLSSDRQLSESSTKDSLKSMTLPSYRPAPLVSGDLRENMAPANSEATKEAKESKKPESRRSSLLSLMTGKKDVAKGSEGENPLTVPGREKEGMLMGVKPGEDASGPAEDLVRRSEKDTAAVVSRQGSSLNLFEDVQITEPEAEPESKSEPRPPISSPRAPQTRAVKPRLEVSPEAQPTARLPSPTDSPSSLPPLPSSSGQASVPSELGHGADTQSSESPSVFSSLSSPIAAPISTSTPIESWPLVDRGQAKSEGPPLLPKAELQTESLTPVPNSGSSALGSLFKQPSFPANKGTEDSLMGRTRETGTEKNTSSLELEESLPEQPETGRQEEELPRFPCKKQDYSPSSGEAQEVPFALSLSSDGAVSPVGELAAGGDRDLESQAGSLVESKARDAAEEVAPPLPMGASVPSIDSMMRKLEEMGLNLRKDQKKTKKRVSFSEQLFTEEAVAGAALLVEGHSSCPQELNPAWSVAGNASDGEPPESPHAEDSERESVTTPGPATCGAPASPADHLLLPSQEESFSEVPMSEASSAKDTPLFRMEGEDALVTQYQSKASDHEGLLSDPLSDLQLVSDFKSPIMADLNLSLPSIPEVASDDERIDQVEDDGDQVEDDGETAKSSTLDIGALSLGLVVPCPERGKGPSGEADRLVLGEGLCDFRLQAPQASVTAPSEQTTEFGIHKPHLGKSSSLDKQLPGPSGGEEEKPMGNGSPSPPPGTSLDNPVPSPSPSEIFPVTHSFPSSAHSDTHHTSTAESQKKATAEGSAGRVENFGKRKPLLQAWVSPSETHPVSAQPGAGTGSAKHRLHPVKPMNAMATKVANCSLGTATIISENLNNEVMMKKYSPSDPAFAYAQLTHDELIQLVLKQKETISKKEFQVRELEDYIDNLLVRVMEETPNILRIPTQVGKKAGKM

On to “TRPV4^R315W-ARD (from UniProt Q9HBA0 149-397) (domain or fragment)”, for which the binding result in assay [1], in assay [2], in assay [3] and in assay [4] was “no binding (tested: 1 μM)” in each case.

Consider “TRPV4^R269C-ARD (from UniProt Q9HBA0 149-397) (domain or fragment)”, for which the binding result in assay [1], in assay [2], in assay [3] and in assay [4] was “no binding (tested: 1 μM)” throughout.

For the substance “TRPV4^WT-ARD (amino acids 149-397) (from UniProt Q9HBA0 149-397) (domain or fragment)”, the binding result in assay [4] is given as “binds”.
